Test results: article PMC6145176 (Bioorganic & medicinal chemistry, 2017)

System: A17 (K103N, Y181C) virus
Details: A17 (K103N, Y181C) virus in MAGI-CCR5 cells

Molecule | IC50, virus A17 | IC50 (read-out: IC50, virus A17) | IC90 (read-out: IC90, virus A17)
3-Methyl-4-(2-(6-methyl-4-(1-methyl-1H-indol-2-yl)-2-oxo-1,2,3,4-tetrahydropyrimidin-5-yl)thiazol-4-yl)benzonitrile [1at] | micromolar activity | 6.4 ± 0.6 µM | > 100 µM
Cc1ccnc2c1NC(=O)c1cccnc1N2C1CC1 [NVP, nevirapine, reference compound] | essentially inactive | – | –
